Some of the results follow. Cleavage of a single-stranded DNA pool by Rep nickase domains was read by sequencing at 3 µM enzyme and 37 °C for 1 h; the strands have 90 letters, of which the middle is given. Uncut reads are compared with the no-enzyme pool on a log2 scale; more negative means more cut, near 0 not cut, and no call is made. Reads are scaled to the total; uncut strands gain when others are lost, and binding without cutting may add a little.
tested on: T1, Rep nickase domain of maize striate mosaic virus; test: uncleaved DNA left, log2 of reads against the no-enzyme library (log2 ratio); higher = less cleavage (more negative = more Rep cleavage of the k-mer); sequences stand for … in CTCGTCCG…ACCGGAGA
T1 sequence (residues 1-117, tag not shown): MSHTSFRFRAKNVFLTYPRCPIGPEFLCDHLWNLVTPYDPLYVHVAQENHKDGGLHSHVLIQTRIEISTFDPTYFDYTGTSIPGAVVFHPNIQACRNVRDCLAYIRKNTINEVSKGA
Protocol: (§1)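 A pool of 90-nt single-stranded DNAs with seven random bases just before the constant AC of the nick site (name = the seven bases) was cut by 3 µM recombinant His6-SUMO-tagged Rep nickase domain (300 nM DNA, 50 mM HEPES pH 8.0, 50 mM NaCl, 1 mM MnCl2, 1 h, 37 °C, three replicates). Uncut DNA was amplified and sequenced.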

Sequence | uncleaved DNA left (log2)
CTGGAGA | -0.671
TGATCGG | 1.89
CATTGGG | -0.167
CTGCGCC | -0.828
GAGGTTT | 1.68
ATTGCTG | -0.797
TCGTGAT | 1.56
CAATGCG | 0.782
TTACTGC | -0.529
CCCCAGG | 0.548
ATTATGG | -0.532
TTTATTT | -0.467
TAACTTG | -0.967
GATAAAT | 1.31
ACTACTG | -0.288
TTCAAAC | -0.203
TTGTATA | 0.547
TATATAG | -1.3
AACCCAA | -0.0993
TTGACGA | -0.871

Sequence | uncleaved DNA left (log2)
CTAGACT | 0.685
GATGGTT | 1.28
CTTCAAC | -0.842
TAGGGAA | 1.71
GATAAGC | -0.439
TAACATT | -0.911
CTAAGCA | -1.22
GCAGGGT | 1.4
GAATTAA | 0.904
TAACCCG | -1.11
ATCCGCT | -0.983
CCAGACC | -0.0218
GTCTGCA | 0.474
AACAGGC | -0.921
TGCTACG | -1.34
ACATCGT | -1.31
GCTTTAA | 0.497
CCTCCGG | 1.26
ACTCCGT | -1.08
TGACGTG | -0.166

tested on: T2, Rep nickase domain of porcine circovirus 2; test: as above
T2 sequence (residues 2-116, tag not shown): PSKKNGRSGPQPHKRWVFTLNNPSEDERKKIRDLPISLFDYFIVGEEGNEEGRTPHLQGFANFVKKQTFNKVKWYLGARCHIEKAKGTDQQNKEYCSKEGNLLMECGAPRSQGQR
Protocol: as §1

Sequence | uncleaved DNA left (log2)
CTGGAGA | 0.135
TGATCGG | 0.145
CATTGGG | 0.08
CTGCGCC | 0.141
GAGGTTT | -2.09
ATTGCTG | 0.122
TCGTGAT | -2.94
CAATGCG | 0.145
TTACTGC | 0.106
CCCCAGG | 0.0149
ATTATGG | 0.106
TTTATTT | -1.18
TAACTTG | -0.0779
GATAAAT | -0.494
ACTACTG | 0.148
TTCAAAC | 0.0556
TTGTATA | 0.0124
TATATAG | 0.17
AACCCAA | -0.237
TTGACGA | 0.00275

Sequence | uncleaved DNA left (log2)
CTAGACT | -0.272
GATGGTT | -0.0591
CTTCAAC | -0.0692
TAGGGAA | 0.142
GATAAGC | 0.256
TAACATT | -1.11
CTAAGCA | -0.0929
GCAGGGT | 0.176
GAATTAA | -0.0721
TAACCCG | -1.33
ATCCGCT | -0.175
CCAGACC | 0.0771
GTCTGCA | 0.0753
AACAGGC | 0.188
TGCTACG | -0.301
ACATCGT | -0.0149
GCTTTAA | -0.0603
CCTCCGG | 0.0199
ACTCCGT | 0.0515
TGACGTG | 0.213

tested on: T3, Rep nickase domain of tomato golden mosaic virus; test: as above
T3 sequence (residues 1-124, tag not shown): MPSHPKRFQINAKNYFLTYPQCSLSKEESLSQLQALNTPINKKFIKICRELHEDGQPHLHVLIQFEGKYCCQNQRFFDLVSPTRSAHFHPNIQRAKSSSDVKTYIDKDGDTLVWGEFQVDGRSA
Protocol: as §1

Sequence | uncleaved DNA left (log2)
CTGGAGA | -0.00614
TGATCGG | 0.115
CATTGGG | -0.0417
CTGCGCC | -0.203
GAGGTTT | 0.0411
ATTGCTG | -0.0645
TCGTGAT | 0.0745
CAATGCG | 0.0351
TTACTGC | -0.0673
CCCCAGG | 0.00665
ATTATGG | 0.0802
TTTATTT | -0.0739
TAACTTG | -0.152
GATAAAT | 0.0726
ACTACTG | 0.0825
TTCAAAC | 0.0771
TTGTATA | 0.131
TATATAG | 0.0254
AACCCAA | -0.025
TTGACGA | -0.0367

Sequence | uncleaved DNA left (log2)
CTAGACT | -0.205
GATGGTT | -0.00622
CTTCAAC | -0.0488
TAGGGAA | 0.0591
GATAAGC | 0.0873
TAACATT | -1.69
CTAAGCA | 0.059
GCAGGGT | 0.153
GAATTAA | 0.164
TAACCCG | -0.0506
ATCCGCT | -0.0515
CCAGACC | 0.124
GTCTGCA | -0.0122
AACAGGC | 0.0398
TGCTACG | -0.0888
ACATCGT | -0.0309
GCTTTAA | 0.154
CCTCCGG | 0.0106
ACTCCGT | 0.0451
TGACGTG | 0.0328

tested on: T4, Rep nickase domain of tomato yellow leaf curl virus; test: as above
T4 sequence (residues 1-136, tag not shown): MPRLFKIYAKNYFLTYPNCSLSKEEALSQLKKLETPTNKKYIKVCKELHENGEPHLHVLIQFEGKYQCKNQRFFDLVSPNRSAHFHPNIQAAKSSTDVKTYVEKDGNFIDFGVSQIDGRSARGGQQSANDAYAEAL
Protocol: as §1

Sequence | uncleaved DNA left (log2)
CTGGAGA | -0.0159
TGATCGG | -0.0665
CATTGGG | 0.153
CTGCGCC | 0.0168
GAGGTTT | 0.0426
ATTGCTG | -0.00335
TCGTGAT | 0.0389
CAATGCG | 0.0609
TTACTGC | -0.0046
CCCCAGG | -0.203
ATTATGG | -0.124
TTTATTT | 0.0111
TAACTTG | -0.0293
GATAAAT | 0.141
ACTACTG | -0.0421
TTCAAAC | 0.0054
TTGTATA | 0.0286
TATATAG | 0.0633
AACCCAA | 0.00806
TTGACGA | 0.0298

Sequence | uncleaved DNA left (log2)
CTAGACT | -0.118
GATGGTT | -0.158
CTTCAAC | -0.0607
TAGGGAA | -0.0205
GATAAGC | 0.102
TAACATT | -0.0041
CTAAGCA | 0.117
GCAGGGT | 0.0132
GAATTAA | 0.112
TAACCCG | -0.0643
ATCCGCT | -0.101
CCAGACC | -0.0108
GTCTGCA | 0.0166
AACAGGC | -0.0308
TGCTACG | -0.19
ACATCGT | -0.0509
GCTTTAA | 0.0411
CCTCCGG | -0.122
ACTCCGT | -0.109
TGACGTG | -0.0596

tested on: T5, Rep nickase domain of wheat dwarf virus; test: as above
T5 sequence (residues 1-137, tag not shown): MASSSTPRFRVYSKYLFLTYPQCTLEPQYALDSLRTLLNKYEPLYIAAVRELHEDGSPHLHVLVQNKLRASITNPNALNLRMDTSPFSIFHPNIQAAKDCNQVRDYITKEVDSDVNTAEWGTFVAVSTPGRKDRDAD
Protocol: as §1

Sequence | uncleaved DNA left (log2)
CTGGAGA | -0.0112
TGATCGG | 0.0597
CATTGGG | 0.00364
CTGCGCC | -0.0824
GAGGTTT | 0.0174
ATTGCTG | -0.0769
TCGTGAT | -0.0273
CAATGCG | -0.0421
TTACTGC | 0.109
CCCCAGG | -0.128
ATTATGG | -0.00234
TTTATTT | -0.106
TAACTTG | -0.109
GATAAAT | 0.195
ACTACTG | 0.0922
TTCAAAC | 0.0895
TTGTATA | -0.0145
TATATAG | -0.0794
AACCCAA | 0.109
TTGACGA | 0.03

Sequence | uncleaved DNA left (log2)
CTAGACT | -0.107
GATGGTT | -0.0766
CTTCAAC | -0.037
TAGGGAA | 0.118
GATAAGC | 0.0736
TAACATT | -2.91
CTAAGCA | -0.0606
GCAGGGT | -0.00907
GAATTAA | 0.0361
TAACCCG | -0.102
ATCCGCT | -0.121
CCAGACC | 0.0846
GTCTGCA | -0.04
AACAGGC | -0.017
TGCTACG | -0.248
ACATCGT | -0.134
GCTTTAA | 0.0555
CCTCCGG | -0.154
ACTCCGT | -0.0971
TGACGTG | -0.0682

— the supplement of paper PMC7826260
